Paper PMC4336329 (PLoS ONE, 2015)
The whole screen tested about 310,000 compounds, of which about 2,200 (0.71%) showed an effect of 50% or more. Effects have a minus sign here. The list shows a part of the results.

What follows are compounds tested against human ether-à-go-go-related gene (hERG) potassium channel (human, UniProt Q12809) (assay: primary screen, population patch clamp on CHO cells stably expressing hERG).
human ether-à-go-go-related gene (hERG) potassium channel, sequence (Q12809 whole entry, looked up): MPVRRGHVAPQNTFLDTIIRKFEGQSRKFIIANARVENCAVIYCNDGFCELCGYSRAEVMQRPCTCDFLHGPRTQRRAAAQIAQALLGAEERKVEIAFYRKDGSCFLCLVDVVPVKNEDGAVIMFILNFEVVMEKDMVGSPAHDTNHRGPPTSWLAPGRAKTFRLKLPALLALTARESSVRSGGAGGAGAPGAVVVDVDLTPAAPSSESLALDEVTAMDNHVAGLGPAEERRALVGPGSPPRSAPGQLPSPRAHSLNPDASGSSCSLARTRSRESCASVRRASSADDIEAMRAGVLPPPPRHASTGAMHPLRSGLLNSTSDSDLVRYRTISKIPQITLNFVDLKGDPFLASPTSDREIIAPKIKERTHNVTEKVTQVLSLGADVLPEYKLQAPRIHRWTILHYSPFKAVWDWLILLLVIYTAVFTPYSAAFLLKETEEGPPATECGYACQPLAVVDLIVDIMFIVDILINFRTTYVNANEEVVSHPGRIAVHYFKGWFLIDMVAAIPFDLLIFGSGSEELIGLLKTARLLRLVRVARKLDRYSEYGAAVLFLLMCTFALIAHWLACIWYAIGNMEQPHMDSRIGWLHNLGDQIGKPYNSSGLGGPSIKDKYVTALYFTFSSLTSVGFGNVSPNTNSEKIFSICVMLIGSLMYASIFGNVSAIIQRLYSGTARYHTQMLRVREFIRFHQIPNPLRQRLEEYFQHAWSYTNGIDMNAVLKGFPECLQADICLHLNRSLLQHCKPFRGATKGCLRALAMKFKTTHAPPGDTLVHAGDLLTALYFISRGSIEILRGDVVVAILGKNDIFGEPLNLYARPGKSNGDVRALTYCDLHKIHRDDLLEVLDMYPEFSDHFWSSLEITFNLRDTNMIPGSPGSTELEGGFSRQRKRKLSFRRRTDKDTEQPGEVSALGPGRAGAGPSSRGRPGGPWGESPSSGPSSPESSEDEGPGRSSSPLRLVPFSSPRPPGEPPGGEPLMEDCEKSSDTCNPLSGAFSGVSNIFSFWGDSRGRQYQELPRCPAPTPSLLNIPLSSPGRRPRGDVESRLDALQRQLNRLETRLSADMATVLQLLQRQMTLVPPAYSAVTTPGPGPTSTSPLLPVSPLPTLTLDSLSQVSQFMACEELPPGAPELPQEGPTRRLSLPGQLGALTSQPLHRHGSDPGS

Row | SMILES | hERG current change (%, negative = inhibition) at 1uM
1 | COc1cccc(N2CCN(CC(=O)c3c(C)[nH]c4ccccc34)CC2)c1 | -10.9%
2 | C=CCOC(=O)C1=C(C)NC(=O)NC1c1cc(Cl)cc(Cl)c1OC (centres unmarked) | 8.06%
3 | CC(C)[C@H](NC(=O)[C@@H]1CSC2c3ccccc3C(=O)N21)C(=O)NC1CCCCC1 (some centres unmarked) | 17%
4 | CCOC(=O)C(=O)N(Nc1ccc(C)cc1)c1ccc(C)cc1 | 4.37%
5 | COc1ccccc1/C=C1\SC(=O)N(CCC(=O)N2CCCCC2CCO)C1=O (centres unmarked) | 14.7%
6 | CSCCC(NC(=O)c1ccc([N+](=O)[O-])cc1Cl)C(=O)OCC(=O)NCCCc1ccccc1 (centres unmarked) | 11.8%
7 | COCCn1c(SCC(=O)Nc2ccc(S(=O)(=O)N(C)C)cc2)nc2ccccc21 | -0.343%
8 | CCNC(=S)N=Nc1c(O)[nH]c2ccc(C(C)C)cc12 | 8.69%
9 | CCc1nonc1NC(=O)c1oc2ccc(C)cc2c1C | 16%
10 | COc1ccccc1C(=O)NC(=O)COC(=O)C1CC1 | -2.92%
11 | COc1cc2c(cc1NC(=S)Nc1cccc(C(F)(F)F)c1)oc1ccccc12 | 13.3%
12 | COc1cccc(NC(=S)N(CCC(C)C)C(C)c2ccncc2)c1 (centres unmarked) | 4.82%
13 | COc1cc(C)nc(SCC(N)=O)n1 | 6.86%
14 | CCS(=O)(=O)C1=NSC2=NC(=O)/C(=C\c3ccc(OS(=O)(=O)c4ccccc4)c(OC)c3)C(=N)N21 | 16.2%
15 | COc1cccc(C2=NC(C)(C)NC(c3ccccc3O)C2)c1 (centres unmarked) | 12%
16 | CC1CCCCN1C(=O)COC(=O)c1n[nH]c2ccccc12 (centres unmarked) | -0.522%
17 | Cc1nonc1NC(=O)CSc1nc2c(C)cccc2cc1C#N | 5.44%
18 | Cc1ccc(Nc2cnn(C34CC5CC(CC(CC(=O)O)(C5)C3)C4)c(=O)c2Cl)cc1C | 12.1%
19 | Clc1ccccc1-c1csc(Nc2cccnc2)n1 | 2.38%
20 | Cn1c(Cc2csc(N)n2)nnc1SCC(=O)NC1CCCCC1 | 9.21%
21 | CN(C)C(=O)c1nc2ccc(Cl)cn2c1CNCc1ccccc1OC(F)(F)F | 14%
22 | Nc1ccc2nn(-c3ccc(F)cc3)nc2c1 | 18.4%
23 | COc1ccc(Cc2nnc(SCC(=O)Nc3ccc(C)c(Cl)c3)[nH]c2=O)cc1 | 5.51%

Row | SMILES | hERG current change (%, negative = inhibition) at 1uM
24 | O=C(O)C1OC(C(=O)O)C2C1C(F)(F)C2(F)F (centres unmarked) | 14.1%
25 | C/C(Cn1cnc([N+](=O)[O-])n1)=N\NC(=O)c1ccccc1F | 9.66%
26 | O=C(NCCCN=C1NS(=O)(=O)c2ccccc21)c1ccc(Cl)cc1 | 23.1%
27 | CC(C)CSc1nnc2[nH]c(=O)cc(N)n12 | 9.88%
28 | O=C(NCc1ccccc1Cl)c1ccc2c(=O)n(CCCN3CCCC3=O)c(=S)[nH]c2c1 | -3.62%
29 | O=C(COC(=O)C1=COCCO1)Nc1ncc(Cl)cc1Cl | 5.39%
30 | Cc1ccc(S(=O)(=O)N/N=C/c2cccn2-c2ccc(Cl)cc2)cc1 | 5.53%
31 | COc1ccc(Cl)cc1C(=O)NCC(c1ccco1)N(C)C (centres unmarked) | 14.7%
32 | COc1cc(C(=O)NCc2ccco2)c(Br)c(OC)c1OC | 0.975%
33 | Cc1ccc(S(=O)(=O)N2[C@@H](c3ccccc3F)C(C(=O)O)=CC[C@H]2c2ccc(Cl)c(Cl)c2)cc1 | 8.4%
34 | CC1CCCN(C(=O)Nc2ccc(Br)cc2Cl)C1 (centres unmarked) | -9.24%
35 | COc1ccc(-c2noc(CSc3nnc(CCc4ccccc4)n3-c3ccccc3)n2)cc1OC | -3.39%
36 | COc1ccc(CCNC(=O)CS(=O)Cc2nc(-c3cccs3)oc2C)cc1OC (centres unmarked) | -0.756%
37 | C#CC(C)(CC)NC(=O)c1cc(OC)c(OC)c(OC)c1 (centres unmarked) | 11.5%
38 | COc1ccc([N+](=O)[O-])cc1NC(=O)C(C)OC(=O)c1cccnc1Cl (centres unmarked) | 5.53%
39 | CCCCc1c(O)nc(SCC(=O)Nc2ccc3c(c2)CCC3)[nH]c1=O | 7.5%
40 | CCOC(=O)c1ccc(NS(=O)C23CC4CC(CC(C4)C2)C3)cc1 (centres unmarked) | 18.8%
41 | CCn1c(COc2ccccc2)nnc1SCC(=O)c1cccc([N+](=O)[O-])c1 | -11.7%
42 | Cc1nc2sc(C(c3ccco3)N3CCC4(CC3)OCCO4)c(O)n2n1 (centres unmarked) | 2.08%
43 | OCC(C#CCN1CCCCC1)NCc1ccccc1 (centres unmarked) | 14.9%
44 | COc1ccc(C(=S)Nc2ccccc2)cc1 | 20.4%
45 | N#Cc1c(Nc2ccccc2C(F)(F)F)s[nH]c1=O | 10.6%
46 | CCCCC(=NCCc1c(C)[nH]c2ccc(OC)cc12)C1=C(O)CC(c2ccccc2)CC1=O (centres unmarked) | 2.35%

Row | SMILES | hERG current change (%, negative = inhibition) at 1uM
47 | Cc1ccc2c(C)nc(Nc3nc(CSc4nnnn4-c4ccccc4)cc(=O)[nH]3)nc2c1 | 8.26%
48 | Cn1nc(C(=O)Nc2cccc(C(F)(F)F)c2)c2ccccc2c1=O | 15.7%
49 | O=C(COC(=O)C1CC1)Nc1ccc(Cl)cc1Cl | 14.9%
50 | O=C(COC(=O)c1ccc(F)cc1Cl)NC(=O)NC1CCCC1 | 7.65%
51 | CC(C)C(=O)Nc1nnn(C)n1 | 6.03%
52 | Cc1ccc(S(=O)(=O)NC(C(=O)Oc2ccc3c(C(F)(F)F)cc(=O)oc3c2)c2ccccc2)cc1 (centres unmarked) | 5.76%
53 | O=C(CC(=O)c1ccccc1)Nc1ccccn1 | 8.5%
54 | COc1ccccc1OCCNC(=O)c1ccc2c(c1)OCCO2 | 19.9%
55 | O=C(NC1CC1)c1cc(-c2ccc(Br)cc2)nc2ccccc12 | 2.54%
56 | CCOc1cc(/C=N/NC(=O)c2cccnc2)ccc1OCC(=O)N1CCOCC1 | 3.03%
57 | COc1cc(OC)c(OC)cc1CN1CCC(O)CC1.Cl | 13.6%
58 | C=CCNC(=O)C(C)Sc1ccc(Cl)cc1 (centres unmarked) | 7.21%
59 | CC(=O)Nc1ccc(NC(=O)C(C)OC(=O)CNS(=O)(=O)c2ccc(Br)cc2Cl)cc1 (centres unmarked) | 15.3%
60 | CCCSc1nnc(CSc2nc3ccccc3s2)n1-c1ccccc1 | 4.42%
61 | O=C(NCc1cc([N+](=O)[O-])ccc1O)c1cc(-c2ccncc2)nc2ccccc12 | 10.2%
62 | CC(Sc1ncn[nH]1)C(=O)Nc1ccc(Cl)cn1 (centres unmarked) | 16.7%
63 | CC(=O)Nc1n[nH]c(S(=O)(=O)Cc2ccc(Cl)cc2Cl)n1 | 10.2%
64 | Cc1nn(-c2ccccc2)c(C)c1NC(=O)COC(=O)CCCOc1ccccc1 | 1.82%
65 | CC(C)(C)NC(=O)NC(=O)COC(=O)Cc1coc2ccc3ccccc3c12 | -10.9%
66 | CCOC(=O)N1CCC(NC(=O)C2CCCN(S(=O)(=O)c3cccnc3)C2)CC1 (centres unmarked) | 8.47%
67 | CCc1ccc(C(C)NC(=O)c2cccs2)cc1 (centres unmarked) | 12.5%
68 | O=C(NC1CC1)C1CC(=O)N(c2ccccc2)C1 (centres unmarked) | 14.3%
69 | CC(C)OC(=O)C1Cc2ccccc2CN1S(=O)(=O)c1cccs1 (centres unmarked) | 12.4%

Row | SMILES | hERG current change (%, negative = inhibition) at 1uM
70 | O=C(CCSc1ccccc1)Nc1nnc(-c2cccs2)o1 | 5%
71 | CC1(C)CC(=O)C/C(=N\NC(=O)Cc2ccccc2)C1 | 17.2%
72 | CC(=O)N1CCN(S(=O)(=O)c2ccc(C)c([N+](=O)[O-])c2)C1C(C)C (centres unmarked) | 16%
73 | O=C(C1CCN(S(=O)(=O)c2ccccc2)CC1)N1CCN(c2ccccc2)CC1 | 8.6%
74 | CC(=O)N1CCN(c2ccccc2NC(=O)c2ccc(Br)o2)CC1 | -23.5%
75 | CCN(CC)CCN(C(=O)c1ccc2c(c1)OCCO2)c1nc2cc(C)cc(C)c2s1.Cl | -43.1%
76 | COc1ccccc1NS(=O)(=O)c1cccc(C(=O)NCc2ccccn2)c1 | 14.3%
77 | C=CCn1c(N2C(=O)CC(Cc3ccccc3)C2=O)nc2ccccc21 (centres unmarked) | -6.06%
78 | CC(=O)Nc1ccc(NC(=O)CN(C)S(=O)(=O)c2ccc3c(c2)CCC(=O)N3)cc1 | 15.2%
79 | CCCCN(C)C(=O)CSc1nc(NCc2ccc(OC)cc2)c2ccccc2n1 | -41.5%
80 | Cc1ccccc1-c1nnc(SCC(=O)Nc2cccc(C)c2C)o1 | 0.205%
81 | COc1ccc(-c2nnc(-c3ccc(Br)o3)o2)cc1OC | 8.87%
82 | CC1CCCCN1C(=O)CSc1ccc(-c2ccc(F)cc2)nn1 (centres unmarked) | -4.47%
83 | COc1ccc(-c2noc(C)c2-c2ccc3ccccc3n2)c(O)c1 | 7.25%
84 | CCOc1ccccc1C(=O)N[C@H](C(=O)Nc1cc(S(=O)(=O)N(C)C)ccc1OC)C(C)C | -1.21%
85 | Cc1[nH]c2ccccc2c1C(=O)COC(=O)Cn1c(C)nc2ccccc21 | 11.3%
86 | COc1ccc(OC)c(NC(=O)COC(=O)COc2c(Cl)cc(Cl)c3ccc(C)nc23)c1 | 9.96%
87 | CCOC(=O)c1ccc(NC(=O)CCc2ccc(C)o2)cc1 | 10.9%
88 | COC(=O)C1=C(C)Nc2nnnn2C1c1ccccc1Cl (centres unmarked) | 7.35%
89 | O=C(Nc1ccc(N2CCOCC2)cc1)c1cc2c(s1)CCCC2 | 6.93%
